Values marked as one replicate rest on one cluster of the flow cell; about a third of the high ones do not repeat.
Tested on: ATP
Assay: switch fluorescence ratio, 500 uM ATP over buffer (Cy3 cluster intensity, sum of 5 cycles each) (fold (ratio)); higher = stronger signal-on switching upon ATP binding; sequences stand for … in TCGTCGGCAGCGTCAGATGTGTATAAGAGACAGTTTTTTTTTTTTTTTTTTTTTTTTT…TC
Details: aptamer strand: ATP DNA aptamer (quencher-CACCTGGGGGAGTATTGCGGAGGAAGG + anchor), 100 nM annealed; ATP concentration: 500 uM; one replicate
Outline: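 Clusters with intensities outside 100-1000 RFU were excluded. The remaining Cy3-labelled switching-strand clusters on a modified Illumina MiSeq flow-cell had been annealed to 100 nM quencher-labelled ATP aptamer and imaged in selection buffer, then after 15 min with 500 uM ATP at 22 °C, for five cycles separated by NaOH stripping and re-annealing. The fluorescence ratio, averaged per switch-domain sequence, is each cluster's summed target-cycle Cy3 intensity over its summed buffer-cycle Cy3 intensity.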
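Note: ATP exposure 15 min at 22 °C before imaging.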

Row | Sequence | switch fluorescence ratio
1 | GTCGGTGGGG | 0.988
2 | GTCGTAGAGG | 0.964
3 | GTCGTGGAGT | 1.1
4 | GTCTAAGCCT | 1.12
5 | GTCTAAGGTC | 0.931
6 | GTCTAGATAC | 2.5
7 | GTCTAGGGAT | 0.983
8 | GTCTATATAT | 0.997
9 | GTCTATATTC | 0.981
10 | GTCTGAAAGT | 1.01
11 | GTCTGACCCC | 1.13
12 | GTCTGATAGA | 0.988
13 | GTCTGATTGG | 0.966
14 | GTCTGATTTC | 0.995
15 | GTCTTAAGCT | 0.961
16 | GTCTTAAGGG | 0.963
17 | GTCTTAGGTA | 1.03
18 | GTCTTCGGAA | 1.15
19 | GTCTTGACCG | 1.03
20 | GTGAAAGCTC | 0.96
21 | GTGAAGTCTC | 0.943
22 | GTGAATTGTC | 1.19
23 | GTGACACATA | 1
24 | GTGACATGTG | 0.932
25 | GTGACCAAAG | 1.02

Row | Sequence | switch fluorescence ratio
26 | GTGACCTAAA | 1.01
27 | GTGACTGGTG | 1.01
28 | GTGAGAACGT | 1.02
29 | GTGAGCGTAT | 0.982
30 | GTGAGTCGTG | 1
31 | GTGAGTTCGT | 0.993
32 | GTGATAAAGT | 0.998
33 | GTGATAGCAT | 1.02
34 | GTGATATTGA | 1.01
35 | GTGATATTTC | 0.96
36 | GTGATCGATC | 1.08
37 | GTGATCTCCA | 0.968
38 | GTGATCTTGG | 1.02
39 | GTGCAAGCAA | 1.06
40 | GTGCACCTTT | 1.01
41 | GTGCAGAAAT | 1
42 | GTGCAGAATT | 0.99
43 | GTGCAGTGCC | 0.992
44 | GTGCATCGGG | 0.968
45 | GTGCCA | 1.01
46 | GTGCCTCAAG | 1.03
47 | GTGCCTCCAA | 1.14
48 | GTGCGACTCC | 1.33
49 | GTGCGACTGC | 0.983
50 | GTGCGAGAAT | 1.01

Row | Sequence | switch fluorescence ratio
51 | GTGCGCAGGG | 1.05
52 | GTGCGGGAGG | 1
53 | GTGCTATCAG | 1.01
54 | GTGCTGGGCC | 1.02
55 | GTGCTTATGG | 0.973
56 | GTGCTTGACG | 0.956
57 | GTGCTTGCAA | 0.963
58 | GTGGAAGGA | 0.969
59 | GTGGAAGGTG | 1.38
60 | GTGGAGATTT | 0.99
61 | GTGGAGGTTT | 0.956
62 | GTGGATGTA | 0.991
63 | GTGGATTTTG | 0.974
64 | GTGGCAACCT | 1.17
65 | GTGGCATATC | 1.24
66 | GTGGCCTATC | 0.962
67 | GTGGCTAGCA | 1.05
68 | GTGGCTCCAC | 1.01
69 | GTGGGAAAGC | 0.997
70 | GTGGGAGAGG | 1.04
71 | GTGGGCGGTT | 0.981
72 | GTGGGGACTG | 0.928
73 | GTGGGGATGC | 1.32
74 | GTGGGGCGAA | 0.987
75 | GTGGGGCTAA | 1.02

Row | Sequence | switch fluorescence ratio
76 | GTGGGGGAT | 1.01
77 | GTGGGGGCCA | 1
78 | GTGGGGTCTA | 1.04
79 | GTGGGTAACG | 0.958
80 | GTGGGTACCT | 1.01
81 | GTGGGTACGC | 1.03
82 | GTGGGTACGT | 0.971
83 | GTGGGTGCTT | 1.01
84 | GTGGGTTAGC | 0.95
85 | GTGGTAAAC | 0.981
86 | GTGGTACCAG | 1.01
87 | GTGGTAGTT | 1.02
88 | GTGGTATGGG | 0.965
89 | GTGGTCTACA | 0.988
90 | GTGGTGCATC | 1.01
91 | GTGGTGGTTA | 0.954
92 | GTGGTGTAAA | 0.97
93 | GTGGTGTTGA | 0.964
94 | GTGGTTAGGA | 1.03
95 | GTGGTTATTG | 0.997
96 | GTGGTTCGAA | 1
97 | GTGGTTGAGA | 0.978
98 | GTGGTTGTTA | 0.99
99 | GTGTAAACTA | 1.03
100 | GTGTAAATTG | 0.956

— the supplement of paper PMC10126150
